Min viability, viability and fold increase data for three compounds are collected here from PubChem BioAssay AID1224863 (Southern Research Institute, 2016).

SMILES strings stand for the structures. Values joined by “and” are separate entries in the source; they are usually repeats but may differ in a detail not shown here. Identical values can stand only once. The list shows a part of the results. Further columns of the screen follow, without active or inactive calls.

For orientation: viability means the share of living cells, or the viability signal relative to a control.

Assay [1] in a line: compounds raising F508del-CFTR protein level – cell-based, HeLa F508del-CFTR, immunofluorescence, viability, primary screen (AID 1224863).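 On fold increase: total CFTR protein by anti-CFTR immunofluorescence in fixed cells.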 Particulars: immunofluorescence total CFTR, 24 h, stronger effect = higher value; min viability: measured here: HeLa viability, alamarBlue, dose 25, library dosed in µM unless noted; viability: measured here: primary viability 25 uM, at 25 µM, library dosed in µM unless noted. (Resazurin is reduced to fluorescent resorufin, in cell work by metabolically active cells.)

The target in assay [2] is Cystic fibrosis transmembrane conductance regulator (Homo sapiens) (UniProt P13569). The description is as above. Particulars: immunofluorescence total CFTR, 24 h, stronger effect = higher value; measured here: primary screen single dose 25 uM, at 25 µM, library dosed in µM unless noted.
Chain of UniProt P13569 (P13569 whole entry, looked up): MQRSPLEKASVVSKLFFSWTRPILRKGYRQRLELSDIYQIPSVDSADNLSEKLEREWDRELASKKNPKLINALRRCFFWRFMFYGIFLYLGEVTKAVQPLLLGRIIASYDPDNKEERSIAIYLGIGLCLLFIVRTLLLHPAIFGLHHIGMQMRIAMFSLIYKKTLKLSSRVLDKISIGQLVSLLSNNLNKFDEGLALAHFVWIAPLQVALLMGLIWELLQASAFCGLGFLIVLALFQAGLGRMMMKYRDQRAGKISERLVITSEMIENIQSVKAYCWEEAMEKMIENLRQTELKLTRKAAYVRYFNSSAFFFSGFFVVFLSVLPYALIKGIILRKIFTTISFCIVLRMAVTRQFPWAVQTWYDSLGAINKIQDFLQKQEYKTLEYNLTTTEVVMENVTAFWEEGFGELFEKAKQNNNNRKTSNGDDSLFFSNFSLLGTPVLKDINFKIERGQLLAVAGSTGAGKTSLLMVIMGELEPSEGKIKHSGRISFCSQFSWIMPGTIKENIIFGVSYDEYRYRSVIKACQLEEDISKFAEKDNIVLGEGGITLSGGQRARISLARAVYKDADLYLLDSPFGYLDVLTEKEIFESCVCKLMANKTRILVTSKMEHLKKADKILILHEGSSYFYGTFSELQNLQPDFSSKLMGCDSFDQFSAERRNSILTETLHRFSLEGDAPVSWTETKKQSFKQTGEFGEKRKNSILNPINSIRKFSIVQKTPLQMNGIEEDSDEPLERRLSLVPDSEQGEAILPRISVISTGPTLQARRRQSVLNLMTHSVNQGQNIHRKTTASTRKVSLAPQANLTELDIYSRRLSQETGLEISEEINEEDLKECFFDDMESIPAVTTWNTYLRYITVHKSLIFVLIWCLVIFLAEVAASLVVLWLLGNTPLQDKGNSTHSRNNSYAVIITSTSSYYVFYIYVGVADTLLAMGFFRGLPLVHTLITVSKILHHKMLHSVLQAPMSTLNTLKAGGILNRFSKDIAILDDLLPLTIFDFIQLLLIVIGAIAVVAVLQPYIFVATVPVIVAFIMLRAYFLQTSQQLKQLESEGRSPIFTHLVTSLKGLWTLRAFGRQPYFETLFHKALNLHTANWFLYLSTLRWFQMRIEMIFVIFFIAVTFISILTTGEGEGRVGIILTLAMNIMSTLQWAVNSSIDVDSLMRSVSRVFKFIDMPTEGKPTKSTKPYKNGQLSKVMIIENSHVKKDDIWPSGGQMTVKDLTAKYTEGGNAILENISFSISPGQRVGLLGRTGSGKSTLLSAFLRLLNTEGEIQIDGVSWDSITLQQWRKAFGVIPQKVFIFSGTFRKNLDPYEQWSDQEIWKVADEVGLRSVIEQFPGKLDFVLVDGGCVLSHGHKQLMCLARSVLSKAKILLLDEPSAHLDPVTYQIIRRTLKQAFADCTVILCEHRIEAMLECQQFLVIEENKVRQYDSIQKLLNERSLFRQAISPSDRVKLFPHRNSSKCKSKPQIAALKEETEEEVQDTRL

For `O=C(O)c1ccccc1-c1c2cc(Br)c(=O)cc-2oc2[c]([Hg])c(O)c(Br)cc12`, in assay [1], the min viability is 68.4% [measured here: HeLa viability, alamarBlue, dose 1.56, library dosed in µM] and the viability amounted to 94%. Also, the fold increase in assay [2] amounted to 4.2.

As for `CC1CC(C)CN(C(=O)CN2CCCC2=O)C1` (centres undefined), in assay [1], the min viability was 68% [measured here: HeLa viability, alamarBlue, dose 0.31, library dosed in µg/mL] and the viability is 97% [measured here: primary viability 10 ug/mL, library dosed in µg/mL]. Also, the fold increase in assay [2] is 1.6 [measured here: primary screen 10 ug/mL, library dosed in µg/mL].

As for `CC[C@@]1(O)C(=O)OCc2c1cc1n(c2=O)Cc2cc3ccccc3nc2-1`, in assay [1], the min viability came to 55.5%; the viability was 67% and 87%. Besides, the fold increase in assay [2] was 1.32 and 1.43.
